Measurements published in the supplement of paper PMC10369915.
The other results are listed elsewhere or left out. Cut-off read from the data, not from the text of the source: active = 3.2 or more and inactive = the rest. The signal is at background level for most entries.

B1: HCLS1_HUMAN_140 (peptide)
chain: KSAVGFDYKGEVEKH
B2: AKT1_HUMAN_176 (peptide)
chain: EKATGRYYAMKILKK
B3: GRB2_HUMAN_7 (peptide)
chain: GMEAIAKYDFKATAD
B4: IL4RA_HUMAN_631 (peptide)
chain: ASSGEEGYKPFQDLI
B5: GRB2_HUMAN_209 (peptide)
chain: TGMFPRNYVTPVNRN
B6: IKBA_HUMAN_42 (peptide)
chain: DSMKDEEYEQMVKEL
B7: HNF4A_HUMAN_288 (peptide)
chain: IDDNEYAYLKAIIFF
B8: INSR_HUMAN_992_YA (peptide)
chain: DGPLGPLYASSNPEA
B9: IL4RA_HUMAN_603 (peptide)
chain: GPPGEAGYKAFSSLL
B10: HNRH1_HUMAN_246 (peptide)
chain: GYGGYDDYNGYNDGY
B11: AKT2_HUMAN_178_YA (peptide)
chain: EKATGRAYAMKILRK
B12: IL2RB_HUMAN_384 (peptide)
chain: ACQVYFTYDPYSEED
B13: HGS_HUMAN_308 (peptide)
chain: APPASSLYSSPVNSS
B14: GPDA_HUMAN_326 (peptide)
chain: FPLFMAVYKVCYEGQ
B15: HCLS1_HUMAN_378 (peptide)
chain: EPEPENDYEDVEEMD
B16: IGF1R_HUMAN_980 (peptide)
chain: YASVNPEYFSAADVY
B17: IL1R1_HUMAN_496 (peptide)
chain: ELEKIQDYEKMPESI
B18: IGF1R_HUMAN_980_YA (peptide)
chain: AASVNPEYFSAADVA

Molecular target: SHP2 C-SH2 domain E139D
Test: enrichment score (SH2-bound / input frequency) (ratio); bacterial display of known human phosphotyrosine sites (pTyr-Var adds point mutants) read by sequencing; higher = stronger binding; tyrosines were phosphorylated by kinases first
Conditions: peptide library: Human pTyr
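Note: displayed peptides selected on beads carrying the immobilized SH2 domain, with library peptides lacking any tyrosine serving as negative controls.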

Enrichment score, inactive:
B1 0.683
B2 2.8
B3 0.927
B4 0.84
B5 0.65
B6 0.979
B7 2.23
B8 0.702
B9 0.684
B10 0.577
B11 1.37
B12 2.02
B13 0.647
B14 2.43
B15 0.971
B16 1.02
B17 1.27
B18 0.728

Molecular target: SHP2 C-SH2 domain wild-type
Test: as above
Conditions: peptide library: Human pTyr

Enrichment score, active:
B2 3.31

Enrichment score, inactive:
B1 0.726
B3 0.78
B4 0.533
B5 0.547
B6 1.13
B7 1.82
B8 0.52
B9 0.569
B10 0.546
B11 1.16
B12 1.68
B13 0.474
B14 2.21
B15 1.19
B16 2.3
B17 1.03
B18 0.778

Molecular target: SHP2 N-SH2 domain L43F
Test: as above
Conditions: peptide library: Human pTyr

Enrichment score, inactive:
B1 0.785
B2 3.18
B3 0.837
B4 0.596
B5 0.463
B6 0.863
B7 1.97
B8 0.799
B9 0.516
B10 0.491
B11 1.24
B12 1.37
B13 0.512
B14 2.5
B15 0.956
B16 0.672
B17 1.11
B18 0.618

Molecular target: SHP2 N-SH2 domain T42A
Test: as above
Conditions: peptide library: Human pTyr

Enrichment score, inactive:
B1 0.672
B2 2.43
B3 0.702
B4 0.407
B5 0.515
B6 0.883
B7 1.81
B8 0.601
B9 0.663
B10 0.443
B11 1.32
B12 2.2
B13 0.607
B14 2.18
B15 0.966
B16 0.622
B17 1.3
B18 0.714

Molecular target: SHP2 N-SH2 domain T52S
Test: as above
Conditions: peptide library: Human pTyr

Enrichment score, active:
B2 3.43

Enrichment score, inactive:
B1 0.766
B3 0.897
B4 0.584
B5 0.475
B6 1.2
B7 1.9
B8 0.627
B9 0.661
B10 0.648
B11 1.14
B12 1.56
B13 0.54
B14 1.98
B15 1.12
B16 0.593
B17 1.26
B18 0.936

Molecular target: SHP2 N-SH2 domain wild-type
Test: as above
Conditions: peptide library: Human pTyr

Enrichment score, inactive:
B1 0.764
B3 0.778
B4 0.645
B5 0.884
B6 1
B7 2.12
B8 0.519
B9 0.659
B10 0.593
B11 1.45
B12 1.98
B13 0.626
B14 2.63
B15 1.35
B16 0.747
B17 1.43
B18 0.69

Enrichment score, active:
B2 4.27
